Target: recombinant human TNFα (RDI) (human, UniProt P01375 part only)
Assay: ELISA: wells coated with recombinant human TNFα 1 ug/mL, conditioned medium with 1 mM benzamidine, detection with anti-myc-HRP and TMB, OD 370 nm, triplicates

UniProt P01375, sequence (P01375 77-233 limits assumed): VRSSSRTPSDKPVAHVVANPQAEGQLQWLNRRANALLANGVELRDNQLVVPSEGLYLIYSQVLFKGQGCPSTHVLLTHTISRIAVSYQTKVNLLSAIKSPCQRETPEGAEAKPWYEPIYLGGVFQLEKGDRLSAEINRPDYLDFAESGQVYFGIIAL

binding result: no binding
B1: Trypsinogen-myc-his (human cationic trypsinogen, tgn, expressed from pSecTag2A) (enzyme)
chain: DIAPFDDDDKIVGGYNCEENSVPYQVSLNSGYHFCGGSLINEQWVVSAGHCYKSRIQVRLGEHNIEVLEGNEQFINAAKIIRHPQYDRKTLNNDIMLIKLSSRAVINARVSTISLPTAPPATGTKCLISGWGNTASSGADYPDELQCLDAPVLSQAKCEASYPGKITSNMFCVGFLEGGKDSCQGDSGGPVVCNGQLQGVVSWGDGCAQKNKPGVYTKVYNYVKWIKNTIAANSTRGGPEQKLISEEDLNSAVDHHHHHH

— patent US20050074865A1 (COMPOUND THERAPEUTICS, published 2005)
